Data on 5 compounds can be found in article PMC4682846 (PLoS ONE, 2015).

Data set [1] deals with T1, Class I fumarase B (FumB) (Escherichia coli, UniProt P14407). The note with it: 100 mM MOPS/KOH pH 6.9, 5 mM DTT, 37 °C, anoxic, Fe2+/thiol reactivated.
Data set [2] deals with Class I fumarase A (FumA) (Escherichia coli, UniProt P0AC33). The settings on record: 100 mM MOPS/KOH pH 6.9, 5 mM MgCl2, 5 mM DTT, 37 °C, anoxic, Fe2+/thiol reactivated.
Data set [3] addresses Class II fumarase C (FumC) (Escherichia coli, UniProt P05042). The settings on record: 100 mM MOPS/KOH pH 6.9, 5 mM MgCl2, 5 mM DTT, 37 °C, oxic.
UniProt P05042, sequence (P05042 whole entry): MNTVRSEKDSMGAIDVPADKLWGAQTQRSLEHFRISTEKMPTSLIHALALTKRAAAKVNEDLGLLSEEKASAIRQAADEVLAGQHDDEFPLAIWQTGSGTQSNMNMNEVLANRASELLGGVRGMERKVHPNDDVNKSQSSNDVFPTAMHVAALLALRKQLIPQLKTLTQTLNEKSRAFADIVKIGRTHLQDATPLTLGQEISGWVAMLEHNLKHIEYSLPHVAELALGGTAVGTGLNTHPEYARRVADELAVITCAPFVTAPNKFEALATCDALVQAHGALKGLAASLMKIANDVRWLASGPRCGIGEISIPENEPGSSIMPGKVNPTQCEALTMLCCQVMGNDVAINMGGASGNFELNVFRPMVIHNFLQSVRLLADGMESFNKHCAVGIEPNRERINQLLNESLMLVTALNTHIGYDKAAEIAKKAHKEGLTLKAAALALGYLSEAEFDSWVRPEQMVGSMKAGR
For data set [4], the target named is T1, Class I fumarase B (FumB). The settings on record: 100 mM MOPS/KOH pH 6.9, 5 mM MgCl2, 5 mM DTT, 37 °C, anoxic, Fe2+/thiol reactivated.
Data set [5] deals with O=C(O)C(O)C(O)C(=O)O. The data set can be described thus: purified protein. The settings on record: 100 mM MOPS/KOH pH 6.9, 5 mM DTT, 37 °C.
In data set [6] the test system is C[C@](O)(CC(=O)O)C(=O)O. The data set can be described thus: purified protein. The note with it: 100 mM MOPS/KOH pH 6.9, 5 mM MgCl2, 5 mM DTT, 37 °C, anoxic, Fe2+/thiol reactivated.
Data set [7] concerns C/C(=C\C(=O)O)C(=O)O. The data set can be described thus: purified protein. The note with it: 100 mM MOPS/KOH pH 6.9, 5 mM MgCl2, 5 mM DTT, 37 °C, anoxic, Fe2+/thiol reactivated.
The subject of data set [8] is O=C(O)C[C@H](O)C(=O)O. Kind of data set: purified protein. The note with it: 100 mM MOPS/KOH pH 6.9, 5 mM MgCl2, 5 mM DTT, 37 °C.

Where two headings read alike, the source gives them in different places.

T1 sequence (P14407 whole entry): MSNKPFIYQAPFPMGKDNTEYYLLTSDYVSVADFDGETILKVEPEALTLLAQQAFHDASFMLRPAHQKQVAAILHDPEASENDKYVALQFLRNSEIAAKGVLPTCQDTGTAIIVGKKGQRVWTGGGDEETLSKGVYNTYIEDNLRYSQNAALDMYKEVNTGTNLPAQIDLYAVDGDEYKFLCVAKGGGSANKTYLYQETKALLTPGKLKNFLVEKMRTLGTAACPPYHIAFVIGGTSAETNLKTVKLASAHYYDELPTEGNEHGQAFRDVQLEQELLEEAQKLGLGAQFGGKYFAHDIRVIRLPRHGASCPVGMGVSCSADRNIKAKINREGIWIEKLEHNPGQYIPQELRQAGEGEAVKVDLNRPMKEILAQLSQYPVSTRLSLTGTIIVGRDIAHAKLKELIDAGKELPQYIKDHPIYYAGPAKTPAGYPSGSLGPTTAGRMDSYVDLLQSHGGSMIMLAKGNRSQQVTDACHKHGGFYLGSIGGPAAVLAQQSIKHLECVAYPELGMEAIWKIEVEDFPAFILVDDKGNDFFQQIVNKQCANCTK

As to `O=C(O)[C@@H](O)[C@H](O)C(=O)O` [(S,S)-(-)-Tartrate], in data set [1], the Km is 800 ± 50 µM.
As to `O=C(O)/C=C/C(=O)O` [Fumarate], the Km came out at 94 ± 15 µM in data set [2], 280 ± 30 µM in data set [3] and 210 ± 30 µM in data set [4].
Take “Class I fumarase A (FumA) (Escherichia coli K-12)”: the Km in data set [5] (anoxic, Fe2+/thiol reactivated) turned out to be 2 ± 0.2 mM; in data set [6], 1.08 ± 0.13 mM; in data set [7] it was 0.22 ± 0.02 mM; in data set [8] (anoxic, Fe2+/thiol reactivated), 0.4 ± 0.05 mM. Also, the maximum rate (Vmax) in data set [5] (anoxic, Fe2+/thiol reactivated) turned out to be 1.4 µmol/min/mg; in data set [6] it was 37.4 µmol/min/mg; in data set [7], 55.6 µmol/min/mg; in data set [8] (anoxic, Fe2+/thiol reactivated) it was 350 µmol/min/mg. The kcat/Km in data set [5] (anoxic, Fe2+/thiol reactivated) was 635 M⁻¹ s⁻¹; in data set [6], 35000 M⁻¹ s⁻¹; in data set [7], 250000 M⁻¹ s⁻¹; in data set [8] (anoxic, Fe2+/thiol reactivated), 870000 M⁻¹ s⁻¹.
On to “Class I fumarase B (FumB) (Escherichia coli K-12)”, for which the Km is listed as 1.04 ± 0.11 mM in data set [6]; 0.1 ± 0.007 mM in data set [7]; 0.78 ± 0.13 mM in data set [8] (anoxic, Fe2+/thiol reactivated). Also, the Vmax in data set [6] was 39.4 µmol/min/mg; in data set [7], 57.8 µmol/min/mg; in data set [8] (anoxic, Fe2+/thiol reactivated), 289 µmol/min/mg. Also, the kcat/Km was determined as 38000 M⁻¹ s⁻¹ in data set [6]; 580000 M⁻¹ s⁻¹ in data set [7]; 370000 M⁻¹ s⁻¹ in data set [8] (anoxic, Fe2+/thiol reactivated).
For “Class II fumarase C (FumC) (Escherichia coli K-12)”, in data set [5] (oxic), the Km is recorded as 6.2 ± 2.1 mM, the Vmax was 0.48 µmol/min/mg and the specificity constant (kcat/Km) was determined as 65 M⁻¹ s⁻¹. For the same compound, in data set [8] (oxic), the Km is reported as 0.93 ± 0.12 mM, the maximal velocity (Vmax) amounted to 431 µmol/min/mg and the kcat/Km worked out at 390000 M⁻¹ s⁻¹.

The term Km denotes the concentration of substrate that gives half-maximal velocity. By Vmax is commonly meant the top rate of the reaction or transport when substrate is in excess. For orientation: kcat/Km means the turnover number divided by the Michaelis constant.
